# Data: ChEMBL document CHEMBL4888484, “Replenishing the malaria drug discovery pipeline: Screening and hit evaluation of the MMV Hit Generation Library 1 (HGL1) against asexual blood stage Plasmodium falciparum ,using a nano luciferase reporter read-out” (2022)
# Out of some 150,000 compounds screened, about 540 (0.36%) showed an effect of 50% or more. The list shows a part of the results.
# Test system: Plasmodium falciparum
# Experiment: Primary screen in NF54 nanoGlo assay, in single point, at 2uM, 72h; a lower Z score goes with more inhibition
# Type: functional, Erythrocyte
# Conditions: timepoint 72 hour
SMILES,% Inhibition [%],Z score
COc1cccc2c1CC[C@@H]2Nc1nc(-c2ccccc2)no1,24,-3.03
CCCN1CCN(C(=O)c2cc(Cl)cc(OC)c2)[C@H]2CS(=O)(=O)C[C@H]21,-5,0.94
O=C(Cc1cccs1)NCc1ccnc(-c2cccnc2)c1,-7,1.1
Cc1n[nH]c(C(=O)NCCc2ncn(C)n2)c1C,11,-1.45
O=C(O)C[C@H]1CN(C(=O)c2csc3ccccc23)CCO1,-4,0.61
Cc1c[nH]c(CN2C[C@@H](CC(=O)O)[C@@H](c3cn(C)nn3)C2)c(C)c1=O,-12,1.59
O=C(O)C1C2C=CC(O2)C1C(=O)Nc1ccccc1Cc1ccccc1 (stereo not drawn),-43,5.09
O=C(c1cccnc1-c1ccc(OCc2ccccc2)nc1)N1CCCC1,-12,1.15
CN(C(=O)c1ccccc1)S(C)(=O)=O,-6,1.05
COCc1nnc(NC(=O)c2nc(C)sc2-c2ccccc2)s1,-16,2
CCS(=O)(=O)Oc1cc(CN(CC(C)C)C(=O)CC(C)C)ccc1OC,-11,1.53
COCCn1nnnc1[C@]1(N(C)C)CCCN(C(=O)c2ccccn2)C1,-13,1.68
O=C(Nc1ccccc1C(F)(F)F)Nc1c(-c2cccnc2)[nH]c2ccccc12,-2,0.36
CC(=O)Nc1cccc(Nc2c(C(=O)N3CCCC[C@@H]3C)cnc3nc(C)ccc23)c1,-8,1.29
Cc1ccc(-c2n[nH]cc2CN2C[C@@H]3[C@H](C2)[C@H]3C(=O)NC(C)(C)C)cc1,1,-0.22
O=S1(=O)CC[C@H](n2nc(C3CCOCC3)nc2-c2ccc[nH]2)C1,-4,0.8
CCCN1CCC(NC(=O)c2cn(C3CCCCC3)nn2)CC1,-2,0.24
CN(Cc1ccccc1F)C(=O)[C@@](C)(O)C1CCOCC1,0,-0.04
Cc1cccc(CN2C[C@]34C=C[C@H](O3)C(C(=O)N3CCS(=O)(=O)CC3)C4C2=O)c1 (stereo partly drawn),1,-0.19
COc1ccc(-c2ccc(C(=O)N[C@H]3COC[C@@H]3O)c(=O)[nH]2)cc1,-21,4
c1cc(NCc2cnc3cnccn23)cc(-c2nc(C3CC3)n[nH]2)c1,-19,2.65

SMILES,% Inhibition [%],Z score
OC(CCc1ccccc1)CNC(Cn1cncn1)C1CC1 (stereo not drawn),-29,3.41
CCOC(=O)Nc1cccc(N[C@@H](C)C(=O)NC(=O)NC)c1C,3,-0.29
CCN(CC)S(=O)(=O)c1ccc(N2CCN(C)CC2)c(N)c1,-18,1.49
Cc1nc(-c2nnn(-c3ccc(F)cc3)c2C)sc1C(=O)NCc1cccs1,-3,0.5
Cc1oncc1C(=O)N(C)C[C@H]1Cc2ccccc2CO1,-3,0.32
Cn1cncc1C1CCN(S(=O)(=O)c2c(F)cccc2F)CC1,2,-0.38
O=C(C1CCC1)N(Cc1cccc(Cl)c1)C[C@H]1CC(c2ccccc2F)=NO1,-13,1.33
CC(CN1CC(C(N)=O)O[C@H](C)C1)c1cccc(Cl)c1 (stereo partly drawn),-3,0.53
Cc1[nH]nc(CCC(=O)N2CCC[C@H](Cn3ccnc3C)C2)c1C,-11,1.77
Cc1nc(N2C[C@H](O)[C@@H](N3CCCC3)C2)c2cnn(C)c2n1,-11,1.78
CCc1ncnc(N2CCOC[C@@H]2CNC(=O)c2cc(C(N)=O)co2)c1F,25,-3.13
O=C(Oc1cc(-c2ccccc2)no1)c1ccc(Cl)cc1,-3,0.41
CC[C@H]1CCCN(C(=O)c2cc(C(C)C)on2)CC1,2,-0.23
C[C@H](NC(N)=O)C(=O)NCc1cccnc1OCc1ccccc1,-7,0.93
O=C(Cc1csc(Cc2cccc(Cl)c2)n1)Nc1ccc2c(c1)OCCCO2,-2,0.25
CCOC(=O)C(=O)Nc1nc(=S)ss1,3,-0.39
COC1CCN(C[C@H]2CCCCCN2C(=O)c2ccc(F)cc2)CC1,1,-0.14
COc1cccc2c(Nc3ccc(C(=O)O)cc3)cc(C)nc12,-3,0.28
COc1cccc(C2=NO[C@H](C(=O)N3CCc4ccccc4C3)C2)c1,10,-1.58
CN(C)c1ccc(C(=O)NC2CC2)cc1N,1,-0.08
CC(C)[C@H]1CN(C(=O)Cc2ccsc2)C[C@@H]1C(=O)O,-1,0.21

SMILES,% Inhibition [%],Z score
C[C@H](NC(=O)CN1CN(c2ccccc2)C2(CCN(C(=O)CC(C)(C)C)CC2)C1=O)c1ccccc1,-1,0.09
Cc1cccnc1C(=O)NCCN1CC[C@H](N2CCOCC2)C1=O,-6,0.79
CC(C)c1nnc(N2C[C@@H]3CN(C(=O)C4CCCC4)C[C@]3(C(=O)O)C2)s1,-6,1.18
Cn1nc(-c2ccccc2)c2[nH]c(-c3ccc(-n4ccnc4)cc3)nc21,-5,0.45
CC(C)(C)c1cc(C[C@@H]2CC[C@H](O)[C@@H](CN)O2)no1,0,-0.02
COc1ccc([C@H](C)NC(=O)c2cccc(N(C)S(C)(=O)=O)c2C)cc1,-1,0.2
O=C(NC1CC1)N(CC1(O)CCCC1)CC1(O)CCCC1,-3,0.48
CN(Cc1nnc[nH]1)C(=O)Nc1ncc(C2CCCCC2)s1,-2,0.27
O=C(Cn1c2c(c(=O)n(C3CCCCC3)c1=O)CCC2)Nc1ccc2c(c1)OCCO2,-11,1.88
CCO[C@H]1CN(C(=O)COc2cccnc2)C[C@@H]1O,2,-0.18
O=C(Cc1c(F)cccc1Cl)N1CC[C@H](n2nccn2)C1,-8,1.54
O=C(Cn1c(=O)n(CCCC(=O)NC2CCCC2)c(=O)c2cc(Cl)ccc21)Nc1ccc(Cl)cc1Cl,-12,1.81
CCOCCO[C@@H](C)C(=O)Nc1cc(C)ccc1NS(C)(=O)=O,-14,1.95
O=C(Nc1ccc(F)cc1)c1nc(-c2cn(-c3cccc(Cl)c3)nn2)no1,10,-1.89
COc1ccc(S(=O)(=O)Nc2cccn3nc(C4CCC4)nc23)cc1,0,-0.02
C=CCN1CCN(C(=O)c2csc(NC(=O)c3cc(F)cc(F)c3)n2)CC1,-5,0.93
Cc1nn(C)c(OCC(F)(F)F)c1CNC[C@](C)(O)c1cccc(Cl)c1,-8,1.42
CCC1(C)CCN(Cc2nnc(C)s2)CC1,-19,2.06
Cc1nn(C)c(C)c1C[C@H](C)C(=O)N1CCc2nc[nH]c2C12CCC2,6,-0.63
CC(C)n1nccc1CN[C@H]1CCc2ccccc2OC1,-9,1.38
CCN(CC(F)(F)F)C(=O)N[C@H](C(=O)O)c1ccccc1,4,-0.55

SMILES,% Inhibition [%],Z score
COc1ccccc1-n1nc(CC(C)C)nc1Cc1c(C)[nH][nH]c1=O,-8,1.29
COc1ccccc1-c1nc(C)nc(N2CCCC2)c1N,-6,1.09
Cc1ccc(C)c(S(=O)(=O)Oc2ccccc2C(=O)OCC(=O)N(CCC#N)c2ccccc2)c1,-14,1.53
NC(=O)c1cc(N)c(Cl)cc1Cl,-15,2.95
Cc1ccc(OCc2ccc(Cl)cn2)c(CO)n1,-6,0.62
CC(=O)N1CCCN(C(=O)C[C@H]2CCc3ccccc3C2)CC1,11,-1.76
CN(C)CC[C@H]1CN(Cc2nc(-c3ccccc3)cs2)CCO1,-5,0.76
CS(=O)(=O)c1ccc([C@H]2CC(O)=Nc3c2c(=O)[nH]n3C2CCCCCCC2)cc1,-3,0.47
CO[C@H]1COC[C@H]1Nc1ccnc2c1c(C)nn2C,10,-1.3
COc1cccc(CCN2CC(=O)N3CC[C@@H](O)C[C@H]3C2=O)c1,-1,0.25
CNC(=O)N1CCC(Cc2ncc(C)n2Cc2ccc(F)cc2)CC1,-11,1.59
CCCS(=O)(=O)N(C)CC(=O)N1CCC[C@H]1c1cccs1,-6,0.89
Cc1cncc(NCc2cnc(N3CCOCC3)nc2)c1,-2,0.25
c1coc([C@@H]2CN(CCCc3ccc4c(c3)CCO4)CCO2)c1,-4,0.36
CCc1onc(C)c1[C@@H]1CCCN1Cc1ccc(OC)c(CN2CCOCC2)c1,-3,0.45
O=C(CCCn1cccn1)N1CCC[C@H]1c1cccc(Cl)c1,3,-0.46
O=S(=O)(CCC1CC1)Nc1ccc(Cl)cn1,-2,0.2
NC(=O)CCn1cc(-c2csc3ccccc23)cn1,0,-0.07
O=C(c1cc(=O)[nH]c2c1CCCC2)N1CCN[C@H](c2cn[nH]c2)C1,1,-0.13
Cn1nc(-c2ccccc2)c(CN(CC2CC2)C[C@H](O)COC(C)(C)C)c1Oc1ccc(F)cc1F,7,-0.91
CCN(Cc1noc(C)n1)Cc1nnc(C(C)C)o1,-19,3.23
